From the supplement of paper PMC10126150
Sequences with one replicate were seen in a single cluster, so their values are uncertain.

Tested on: ATP
Assay: switch fluorescence ratio, 500 uM ATP over buffer (Cy3 cluster intensity, sum of 5 cycles each) (fold (ratio)); higher = stronger signal-on switching upon ATP binding; sequences stand for … in TCGTCGGCAGCGTCAGATGTGTATAAGAGACAGTTTTTTTTTTTTTTTTTTTTTTTTT…TC
Settings: aptamer strand: ATP DNA aptamer (quencher-CACCTGGGGGAGTATTGCGGAGGAAGG + anchor), 100 nM annealed; ATP concentration: 500 uM; one replicate
Procedure, shortened: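 Cy3-labelled switching-strand clusters on a modified Illumina MiSeq flow-cell were annealed to 100 nM quencher-labelled ATP aptamer and imaged first in selection buffer, then after 15 min with 500 uM ATP at 22 °C. NaOH stripping and re-annealing separated each of five buffer/ATP cycles, and clusters outside 100-1000 RFU were excluded. The fluorescence ratio sums target-cycle Cy3 intensity over buffer-cycle Cy3 intensity per cluster and averages it per switch-domain sequence.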
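Note: ATP exposure 15 min at 22 °C before imaging.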

| Sequence | switch fluorescence ratio |
| --- | --- |
| AGCTGAATAA | 0.975 |
| AGGTCGTGCC | 1.02 |
| TAGCTATACG | 1.48 |
| AATTATGCGC | 1.02 |
| GATTAATGTA | 1 |
| TTAGACAGCG | 0.99 |
| CCCACTGCGG | 1.13 |
| GTTAGAATC | 0.996 |
| CGCCGGGGA | 0.965 |
| TCAACGGCAG | 0.998 |
| GGCCACAATG | 1.01 |
| AGTCTCGGCG | 0.967 |
| GCGACGGCTG | 0.959 |
| TCGCTGGAAA | 0.962 |
| TAAGTTACGT | 1.09 |
| GCCGCTAATA | 3.3 |
| CGTAGCTTCT | 1.11 |
| GCATGCCAGT | 0.987 |
| GTCGGATCAG | 0.955 |
| GAGCGCCCGA | 0.994 |
| CACATGCCAT | 1.02 |
| AGAACCATGT | 1.09 |
| GGGCGTAGAA | 1.01 |

| Sequence | switch fluorescence ratio |
| --- | --- |
| GCCACGATGT | 1 |
| ATACACTCAG | 1.07 |
| TGAGGGCACC | 1.12 |
| GTTGAGGATC | 1.04 |
| ACCAAAGGCC | 1.05 |
| AGAAAAGATG | 1.12 |
| TAATGCTGGA | 1 |
| AACAAGCACG | 1.17 |
| CTGTCGTAAG | 1.05 |
| ATATTGAAAA | 1.01 |
| GCATGCATTT | 1.03 |
| GTTCCTTGGT | 0.992 |
| CCGGAACTTT | 1.06 |
| GACATATGTG | 1.09 |
| GGAGTTGTCC | 0.963 |
| TTAGTCTATT | 0.976 |
| ATTGGTTCAA | 1.04 |
| GAATTCCACC | 1.07 |
| GGACTTTGAT | 1.04 |
| CGCACAGACG | 1.14 |
| CATAGGGGC | 1.01 |
| GCATCCTGTG | 0.995 |
| AACTTGTGTC | 0.99 |

| Sequence | switch fluorescence ratio |
| --- | --- |
| TGTTGTGCGC | 0.909 |
| GCCATGACCG | 0.968 |
| CACGGGTAAG | 1.03 |
| TCTTCTATAG | 1.01 |
| AATGCATGTA | 0.97 |
| TAACACATAC | 1.56 |
| CTAATGTATT | 0.973 |
| CAGTTGACCC | 1.03 |
| TTTAATACA | 1.03 |
| GAGTTTCGGC | 0.951 |
| TGCTTCAGA | 0.981 |
| AAAGAACATG | 1.02 |
| CTTGTACAAG | 1 |
| AAAACAGGCT | 1.02 |
| GTTCTAATTA | 1.01 |
| TAAAGATTGG | 0.983 |
| GCGATGTTTT | 0.936 |
| CTGACAGTCA | 1.06 |
| GCCTAGTGGC | 1.03 |
| TGGTAAATTT | 0.979 |
| ATTAAGTTC | 1.02 |
| CTAGTCCTCG | 0.985 |
| GGGCTTGCGA | 1.04 |

| Sequence | switch fluorescence ratio |
| --- | --- |
| AGGGGGTGG | 0.994 |
| GCTGGCAGCA | 1.05 |
| AATGACAGTG | 1.03 |
| CCCAGATTTA | 1.02 |
| TTGTGATGGG | 0.994 |
| TATTTACCGG | 0.996 |
| CACGTGGTGA | 1.04 |
| GAAATCTACG | 1.07 |
| ATGGTTAATC | 1.01 |
| ACCCCCAAAA | 1.35 |
| TGGAGGAGA | 1.08 |
| CACCAATCTG | 1.06 |
| AAATGCGGGC | 1.09 |
| GACCGGTGAA | 1.01 |
| CCAGGAGGG | 1.03 |
| TAAGCGTCGA | 1.06 |
| AGAGGCTTGA | 1.02 |
| GACGGCACTG | 1.15 |
| GGGTTGGAGC | 1.02 |
| ATACCCCGCG | 1.11 |
| GTTGGCCTTG | 0.976 |
| GGAACGCCCC | 1.21 |
| GGAGCAGAAG | 2.31 |

| Sequence | switch fluorescence ratio |
| --- | --- |
| AGAAAATGGT | 0.994 |
| TAGATGCGTT | 0.994 |
| GAATCCTGT | 1.02 |
| ATGGTATGGG | 0.991 |
| GCTGTAAAAT | 0.984 |
| CGTGAAGTTT | 0.959 |
| GCGATTTTAG | 0.962 |
| GGCCGGGGCA | 0.96 |
| CTTGCCAGTG | 1.06 |
| AATTGCGGTC | 0.984 |
| CCTCGCTCGG | 2.15 |
| CCGGCTGTCT | 1.07 |
| GCAGCTGGT | 1.03 |
| GTAGTATAAT | 0.996 |
| TTCCGGTGGT | 0.946 |
| CGTGCTGCGG | 0.955 |
| GAGTAAAAA | 0.983 |
| TTAAATCGGT | 1.01 |
| ACGCTATCGG | 1.11 |
| CATCCATCGA | 1.1 |
| CAGTTTAAAT | 0.964 |
| ACTAGGTTG | 0.986 |
| GAAGATATGC | 1.04 |

| Sequence | switch fluorescence ratio |
| --- | --- |
| GGTGAGGCCG | 0.974 |
| GCACTTTCGC | 0.974 |
| ATGGGAAAAT | 1.01 |
| ATTCAGATAA | 0.972 |
| TTGTACTTTA | 1.02 |
| ACGGGGAAGT | 1.02 |
| AAAATAGCA | 0.973 |
| TGGGAGAGAC | 1.02 |
| CAGGATTTAA | 0.974 |
| CGTCATCGAG | 1.03 |
| AGGGACGGTT | 0.967 |
| CTCAATAAAT | 1.01 |
| CGTCGCTGAA | 0.97 |
| CAGTCGATCT | 1.01 |
| TGAAAATGTT | 0.998 |
| CCACACCACT | 1.38 |
| AGGGGACAGA | 0.996 |
| CGGTAGTGTC | 1.04 |
| CCTAGGATGC | 1.15 |
| CATTTTAAAG | 1 |
| TTTTGCTCTG | 0.978 |
| TCTTATCTA | 0.985 |
| AGGGCATAGC | 1.01 |

| Sequence | switch fluorescence ratio |
| --- | --- |
| AACGACGTTG | 1.01 |
| TTACAGCTTT | 0.997 |
| ACCGCCAAGG | 1.03 |
| TTCAACCGGA | 1.01 |
| GTCGCATGGG | 1.09 |
| GGACGTTATG | 0.963 |
| GACCGAGACG | 1.13 |
| TAAGGGAAGT | 1.03 |
| AGGTGTGCAT | 0.996 |
| GATTCCTGAT | 0.991 |
| CCCTAGGCAT | 1.21 |
| ACACGACATC | 1.14 |
| GGCCAAATAG | 0.989 |
| CAGCTAATGC | 1.65 |
| ACCATGTAAT | 1.03 |
| CAGCAATGAT | 2.21 |
| CAGCGAGTGC | 1.14 |
| TGCCCCGTC | 0.99 |
| GGGATTCATG | 0.966 |
